In all, about 150,000 compounds went through this assay and about 540 (0.36%) showed an effect of 50% or more. Some of the results follow.
system: Plasmodium falciparum; assay: Primary screen in NF54 nanoGlo assay, in single point, at 2uM, 72h; a lower Z score goes with more inhibition; format: functional, Erythrocyte; conditions: timepoint 72 hour

| Structure (SMILES) | % Inhibition [%] | Z score |
| --- | --- | --- |
| CCN1N=C(C(=O)N2CCC(C)CC2)S(=O)(=O)c2ccccc21 | 1 | -0.07 |
| Cc1ccc(Cn2cnc3c2c(=O)n(C[C@H]2CCCO2)c(=O)n3-c2ccc(F)cc2F)cc1 | -14 | 1.4 |
| C=C(C)CN(CC)C(=O)Nc1ccc(-n2ncn(C)c2=O)cc1 | -8 | 0.99 |
| CC(C)(CNc1nc(CC2CC2)nc2c1CCNCC2)N1CCOCC1 | -4 | 0.7 |
| Cc1ccc(OCCCN(C)C(=O)[C@H]2CCN(C)C2)cc1C | -15 | 1.87 |
| CC(NC(=O)CC1CCCCC1)C(=O)NCC(C)N(C)C (stereo unspecified) | -3 | 0.35 |
| Cc1cccc(-c2ncc(C(=O)NC[C@H]3CCS(=O)(=O)C3)c(O)n2)c1 | -3 | 0.51 |
| O=C(CNc1cc(F)ccc1OCC(F)(F)F)NC(=O)NC1CC1 | -10 | 1.6 |
| CCCc1nnc(N2CCC(Oc3ccccc3Cl)CC2)o1 | -11 | 1.79 |
| Cc1n[nH]c(C)c1CNC(=O)c1cc(Cn2c(C)nc3ccccc32)[nH]n1 | 12 | -1.53 |
| CC(=O)NCCCN[C@@H](C)c1ccc(Br)cc1F | -14 | 1.89 |
| Cc1noc(CNC(=O)N[C@@H](C)C(C)C)n1 | 4 | -0.51 |
| O=C1NCCN2CCN(S(=O)(=O)c3cccc4nsnc34)CC[C@@H]12 | 3 | -0.52 |
| CCOc1cc(C(=O)N[C@@H](CO)C2CCOCC2)n[nH]1 | 4 | -0.5 |
| COc1ccc(CC2(CCC(=O)N3CCCC(C)C3)CCC(=O)N2)c(F)c1 (stereo unspecified) | -6 | 1.06 |
| CC(C)N1C[C@@H](C(=O)N(C)CC(=O)NC(C)(C)C)CC1=O | -3 | 0.53 |
| Cc1nc([C@H](C)N(C)Cc2cc(C(N)=O)oc2C(C)(C)C)c(C)s1 | 4 | -0.47 |
| Cc1nc(N2CCN(C)CC2)ncc1-c1cc(=O)[nH]c(N2c3ccccc3C[C@@H]2C)n1 | 1 | -0.1 |
| O=S(=O)(c1cnc2n1CCC2)N1CC2(CCCC2)c2cccc(Cl)c21 | -4 | 0.72 |
| CCCN(CCC)S(=O)(=O)c1cc2c(cc1Cl)Oc1cc(C)ccc1NC2=O | -1 | 0.18 |
| O=C(Nc1ccc2c(c1)OCO2)c1nnc(C(=O)N2CCC(C(=O)N3CCCC3)CC2)s1 | -8 | 1.22 |

| Structure (SMILES) | % Inhibition [%] | Z score |
| --- | --- | --- |
| CC(O)CC1COCCN1C(=O)NCCC1Cc2ccccc2C1 (stereo unspecified) | -9 | 0.95 |
| CCCc1cnc(C)nc1N1CCN(Cc2ccncc2Cl)CC1 | -13 | 1.53 |
| OC[C@H]1COc2ccccc2[C@H]1NCC1(O)CCCC1 | -2 | 0.45 |
| O=C(CN1CCN(CC(=O)c2ccccc2)CC1)c1ccccc1 | 0 | -0.02 |
| Cc1ccc(S(=O)(=O)Nc2c(S(=O)(=O)c3ccccc3)c3nc4ccccc4nc3n2CCc2ccccc2)cc1 | 86 | -14.39 |
| CCOC(=O)CNC(=O)[C@@H](OC(=O)c1ccccc1)C(C)(C)CN1CCCC1=O | -9 | 1.13 |
| CCCc1noc([C@H](C)NC(=O)CNC(N)=O)n1 | 4 | -0.49 |
| CC(C)(C)OC(=O)N1CCC(c2c(C(=O)NCc3ccc(F)cc3)cnn2-c2ccc(F)cc2F)CC1 | -10 | 1.7 |
| COc1ccccc1[C@H](CNCc1nc(C2CC2)no1)N1CCCC1 | -1 | 0.07 |
| CCc1nn(C)cc1NC(=O)N1CCN(C(=O)c2ccc(F)cc2)CC1 | 5 | -0.74 |
| CC1CCC2(CC1)N=C(c1ccccc1)C(=O)N2CC(=O)Nc1ccc2c(c1)OCCO2 (stereo unspecified) | 10 | -1.8 |
| CC(=O)N1CCC[C@H]1C(=O)NC(C)Cn1cccn1 (stereo partly specified) | 2 | -0.39 |
| O=c1cccnn1C[C@@H](O)CCc1ccccc1 | 2 | -0.29 |
| COc1cc(CN2CC[C@H](NS(=O)(=O)N(C)C)[C@@H](O)C2)ccc1F | -9 | 0.86 |
| COc1cccc([C@@H]2CCCCN2C(=O)Nc2ccnn2CC(C)C)c1 | -7 | 1.26 |
| C#CCN1CCCCC1C(=O)NCC(C)(O)c1cnn(C)c1 (stereo unspecified) | 4 | -0.5 |
| CC(C)c1noc(CCCn2cnc3ccccc3c2=O)n1 | -21 | 3.06 |
| O=C(Cc1cccnc1)NCc1cncc(-c2ccco2)c1 | 12 | -1.54 |
| O=C(COc1cc(F)cc(F)c1)NC[C@@H](CO)c1cccnc1 | -9 | 1.55 |
| CCc1nc(CNC(=O)NCc2ccsc2)cs1 | -9 | 1.56 |
| CN(C[C@H]1COc2ccccc2O1)C(=O)c1ccc2c(c1)OCO2 | 0 | 0.03 |

| Structure (SMILES) | % Inhibition [%] | Z score |
| --- | --- | --- |
| CO[C@@H](CNS(=O)(=O)Cc1cc(F)cc(F)c1)c1ccsc1 | -11 | 1.42 |
| O=C(Cn1c(-c2cncs2)nc2ccccc21)Nc1ccc2c(c1)OCCO2 | -11 | 2.17 |
| CC(C(=O)N(C)C)S(=O)(=O)NC1CCCC2OCCC12 (stereo unspecified) | -13 | 2.01 |
| Cc1csc(C(=O)N2CCC[C@H]2CO)n1 | -11 | 1.39 |
| Cc1ncsc1C(=O)Nc1nnc(C)n1C1CC1 | 8 | -1.37 |
| Cc1cc([C@H](Nc2ccccn2)c2ccccc2)c(NC(=O)c2ccccc2)s1 | 31 | -0.7 |
| Cc1nc2ccccc2c(-c2ccc(Cl)cc2)c1C1=NN(C(=O)CCC(=O)O)[C@H](c2ccc(Cl)cc2)C1 | -11 | 1.67 |
| Cc1cccc2nc(CN3CCN(S(=O)(=O)c4ccc(C(N)=O)o4)CC3)cn12 | -11 | 1.45 |
| CCN(C(=O)c1ccc(F)c(Br)c1)c1ccncc1 | -2 | 0.19 |
| CCCc1ccc(C(=O)Cn2ncc(C(F)(F)F)cc2=O)cc1 | -3 | 0.44 |
| CCC(Cc1ccc(C(F)(F)F)cc1)C(=O)NC1CCOC(C)C1 (stereo unspecified) | -22 | 3.73 |
| COc1ccc(CS(C)(=O)=O)cc1NC(=O)C1Cc2ccccc2C1 | -1 | 0.13 |
| CCc1cc(C(=O)N2CCN(S(=O)(=O)N3CCN(C)CC3)CC2)ccc1O | -14 | 2.78 |
| Cn1c2cn(-c3cccc(O)c3)c(-c3ccc(Cl)cc3)c2c(=O)n1-c1ccccc1 | -6 | 0.73 |
| O=C(c1ccc(=O)[nH]c1)N1CCN(C[C@@H](O)Cc2ccccc2)CC1 | -3 | 0.62 |
| CN(Cc1cnc2ccccc2c1)C(=O)CCCS(N)(=O)=O | 3 | -0.52 |
| CN(C(=O)Nc1ccncc1)C1CCN(c2ccccn2)CC1 | 2 | -0.19 |
| O=C(Cc1cccnc1)N[C@H]1CCCc2sccc21 | -8 | 1.1 |
| O=C(N[C@@H]1COCC[C@@H]1OCCO)c1cc(F)c(F)c(F)c1 | 0 | 0.04 |
| c1ccc(OCCN2CCOC3(CCCC3)C2)cc1 | -11 | 1.41 |
| CNC(=O)[C@H]1CCN(C(=O)Nc2ccc(-c3ccccc3F)nn2)C1 | -1 | 0.09 |

| Structure (SMILES) | % Inhibition [%] | Z score |
| --- | --- | --- |
| CCCc1nc(C)cc(NC[C@H]2CCCN(S(C)(=O)=O)C2)n1 | 1 | -0.24 |
| CCN1CCN(CC(=O)N2N=C(c3ccc(C)cc3)C[C@H]2c2ccc(C)cc2)CC1 | 11 | -1.38 |
| CCOCC(=O)Nc1nnc(CCCc2ccccc2)s1 | -2 | 0.3 |
| COc1ccccc1N(CC(=O)NCc1cccs1)S(=O)(=O)c1ccccc1C(F)(F)F | -1 | 0.13 |
| COc1ccc(CNC(=O)C2CCN(c3cc4c(nn3)CCC4)CC2)c(OC)c1 | 6 | -0.78 |
| CC(C)NC(=O)[C@H](Cc1ccccc1)NC(=O)N1CC(=O)Nc2ccccc21 | 1 | -0.1 |
| O=C(N[C@H]1Cc2ccccc2NC1=O)c1cccs1 | -8 | 1.31 |
| O=C(NC1CCN(c2nccn3cnnc23)C1)C1CC(=O)N(c2ccccc2)C1 (stereo unspecified) | -16 | 2.01 |
| CC(C)(C)OC(=O)NCc1cccc(NCc2cscn2)c1 | -1 | 0.14 |
| COc1cccc(Nc2cc(C(=O)N3CCCCC3)nc3ccc(C)cc23)c1 | 3 | -0.3 |
| CN(CCc1ccc(Br)cc1)C(=O)NCc1cccnc1 | -6 | 1 |
| c1nc(CNc2ccc(Cc3nnc4n3CCCCC4)cc2)cs1 | -9 | 1.07 |
| COc1cccc(-c2nn(-c3nc(-c4ccccc4)cc(C(F)(F)F)n3)c(-c3cccc(OC)c3)c2Cl)c1 | 38 | -3.81 |
| CS(=O)(=O)c1ccc(C(=O)N2CC[C@H]3CC[C@H](O)[C@H]32)cc1 | -5 | 0.5 |
| Cc1nn(C)c(C)c1S(=O)(=O)N1C[C@@H]2[C@H]3CC[C@H](CC3)[C@@H]2C1 | 4 | -0.81 |
| CCn1nc(C)c(CN2CCC(CNC(=O)[C@H]3CCOC3)CC2)c1C | -7 | 0.71 |
| Cc1nsc(C)c1C(=O)N1CCC(C)C(n2ccnc2)C1 (stereo unspecified) | -8 | 0.96 |
| N#Cc1c2n(c(=O)n(C[C@H](O)COc3ccccc3)c1=O)CCC2 | -26 | 2.39 |
| CCc1ccc(O)c(C(=O)N[C@@H](C)Cn2cncn2)c1 | -12 | 1.18 |
| CCc1onc(C)c1CN[C@H](c1cnn(C)c1)C1(CO)CCC1 | -8 | 1.53 |

From ChEMBL document CHEMBL4888484, “Replenishing the malaria drug discovery pipeline: Screening and hit evaluation of the MMV Hit Generation Library 1 (HGL1) against asexual blood stage Plasmodium falciparum ,using a nano luciferase reporter read-out” (2022)
